Assay results reported in patent US20230272050A1, “BINDING PROTEIN SPECIFIC FOR THE SPIKE PROTEIN OF SEVERE ACUTE RESPIRATORY SYNDROME CORONA VIRUS 2 (SARS-COV-2)” (priority 2020, published 2023).

B1: 213152 (protein)
chain: AKFDEAQLAAFEEIRHLPNLTEEQREAFITSLYDDPSVSLEVLGEAQKLNDSQAPKIAAKFDEAQQAAFYEILHLPNPTEWQRNYFIQQLRDDPSVSLAVLGRAQVLNDSQAPKIAAQHDKIQQAADKEILHLPNLTEEQRNKFRQSLRDDPSVSAEILAEAKKLNDAQAPKIAAQHDKIQQAADKEILHLPNLTEEQRNKFRQSLRDDPSVSAEILAEAKKLNDAQAPK
B2: 212895 (protein)
chain: AVLDIAQHSATEEIWWLPNLTKQQKVWFIMSLTQDPSVSKEVLGEAQKLNDSQAPKIAAQHDKIQQAADKEILHLPNLTEEQRNKFRQSLRDDPSVSAEILAEAKKLNDAQAPKIAAQHDKIQQAADKEILHLPNLTEEQRNKFRQSLRDDPSVSAEILAEAKKLNDAQAPKIAAQHDKIQQAADKEILHLPNLTEEQRNKFRQSLRDDPSVSAEILAEAKKLNDAQAPKC
B3: 212896 (protein)
chain: B2 chain with A6D, S9A, K40L, V42I, G44A, Q47K, S52A
B4: 213147 (protein)
chain: AKFDEAQQWAFYEILHLENLTEEQRNAFIQSLRDDPSVSREVLGEATKLNTSQAPKIAAKFDEAQLAAFQEIRHLPNLTEEQREAFITSLYDDPSVSLEVLGEAQKLNDSQAPKIAAQHDKIQQAADKEILHLPNLTEEQRNKFRQSLRDDPSVSAEILAEAKKLNDAQAPKIAAQHDKIQQAADKEILHLPNLTEEQRNKFRQSLRDDPSVSAEILAEAKKLNDAQAPK
B5: 212361 (protein)
chain: IAAKFDEAQQYAFYKILHLWNLTEEQRNAFIQSLRDDPSVSLEVLGEARKLNTSQAPKIAAKFDEAQYAAFLEIVHLPNLTEEQRQAFIASLWDDPSVSLEVLGEAQKLNDSQAPK
B6: 212335 (protein)
chain: B5 chain with V75H, Q86H, A90L, W93Y

Key:
[1] = target: SARS-Cov2-RBD-His (Severe acute respiratory syndrome coronavirus 2)
[2] = tested on: RBD (Severe acute respiratory syndrome coronavirus 2); settings: 0.1 M NaOH for at least 10 h at RT (equals 40 CIP cycles), coupled to Praesto Epoxy 85
[3] = tested on: SARS-CoV2-RBD (Severe acute respiratory syndrome coronavirus 2)
[4] = target: S1-His and ACE2 (Severe acute respiratory syndrome coronavirus 2); settings: equimolar mixture incubated 1 h at RT
[5] = target: RBD-His and ACE2 (Severe acute respiratory syndrome coronavirus 2); settings: equimolar mixture incubated 1 h at RT

Row | Molecule | Elution pH at main fraction [1] [pH] | peak maximum in a pH gradient profile [1] [pH] | purity of eluted RBD-His target, qualitative [1] | captured RBD eluted at pH 3.4 [1] [%] | remaining RBD binding capacity [2] [%] | purity of the eluted fraction [3] | competitive binding, S1 and ACE2 applied at the same time [4] | competitive binding, RBD and ACE2 applied at the same time [5]
1 | B1 | 4.19 | ~3.9 | high purity |  |  |  |  | 
2 | B2 | 3.47 | 3.4 |  | 96 |  |  |  | 
3 | B3 | 3.4 | 3.4 |  | 96 | 87 | at least 94% | binds to the same or an overlapping epitope | binds to the same or an overlapping epitope
4 | B4 | 4.62 | ~4.3 | high purity |  |  |  |  | 
5 | B5 | >6.0 |  |  |  |  |  |  | 
6 | B6 | >6.0 |  |  |  |  |  |  | 

Where a chain is given by its changes, count along the chain named.
